Hit rate of the full screen: of about 280,000 compounds, about 820 (0.29%) were called active. The shares of active, inactive and inconclusive entries below differ from those in the screen. Calls come from the whole dose curve; as a rule, active = well fitted curve in either direction with a large enough effect; inconclusive = small, poorly fitted or top-dose-only effect; inactive = flat fitted curve, though single readings scatter. No potency is given beside an inconclusive call; the fits are too rough. Some structures have more than one record in an assay (separate samples or runs), and their calls can disagree.
Test: Total Fluorescence Counterscreen for Inhibitors of the Interaction of Thyroid Hormone Receptor and Steroid Receptor Coregulator 2
Details: TRb/SRC2 Texas Red total fluorescence interference; series mostly up to 106 µM; fluorescence change, negative = quenching: at the top concentration
Procedure, shortened: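 Human TRb ligand-binding domain at 0.6 uM with 20 nM Texas Red SRC2 peptide in Tris buffer containing 1 uM T3 and 5% DMSO, incubated with compound 5 h at ambient temperature. Total fluorescence (555/632 nm) calculated as parallel + 2 × perpendicular.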
% is set by controls: 0 for no effect and ±100 for the full control effect; potency is the fitted concentration of half-maximal effect; tags give direction and shape of the fitted curve or compound fluorescence and quenching.

With CCc1cc2c(cc3c(=O)n(CC(=O)N4CCC(C)CC4)nc(CC)n32)s1 as the compound, how does the Potency read?
The Potency was inconclusive [quencher, full curve].

With CCOc1ccc(NC(=O)CSc2nc3ccccc3c(=O)n2CCC(=O)NC2CCCCC2)cc1 as the compound, how does the Potency read?
The Potency was inconclusive [falling, full curve, poor fit].

Which Potency does the source give for O=C(NCCc1ccccc1)c1ccc2nc(-c3ccco3)c(-c3ccco3)nc2c1 here?
The Potency was active: 28.2 µM [quencher].

For CC(C)Cn1c(SCc2cccc(F)c2)nc2ccsc2c1=O, which Potency is on record?
The Potency was inconclusive [falling, full curve, poor fit].

With COC(=O)Oc1ccccc1C(=O)O as the compound, how does the “fluorescence change, negative = quenching” value (“fluorescence change” for short) read?
Its value is inactive: -5.72%.

With Cc1ccc(NC(=O)CN2C(=O)C(C)(C)c3cc(S(=O)(=O)N4CCCCC4)ccc32)c(Br)c1 as the compound, how does the “fluorescence change” value read?
Its value is inactive: 5.18%.

For COc1cccc(-c2cc(C(=O)Nc3cccnc3Cl)no2)c1, which Potency is on record?
The Potency was inconclusive.

For CCCC12C(=O)C(C)(C(c3ccccc3)=C1c1ccccc1)C1C(=O)N(c3ccc(C)cc3)C(=O)C12 (stereo not given), which Potency is on record?
Its Potency is inconclusive [rising, single point].

For COc1cccc(NC(=O)Cn2c(=O)n(Cc3ccccc3)c(=O)c3c4c(sc32)CN(C(C)=O)CC4)c1, which “fluorescence change” value is on record?
The value was inactive: 9.46%.

Which Potency does the source give for COc1ccc(S(=O)(=O)NC2(C(F)(F)F)NC(=O)N(CCc3ccccc3)C2=O)cc1 (stereo not given) here?
The Potency was inconclusive [falling, full curve, poor fit].

For Cc1ccc(/C=C(\C#N)c2nc(-c3cc4c(ccc5ccccc54)oc3=O)cs2)cc1, which Potency is on record?
Its Potency is inconclusive [falling, full curve, poor fit].

With COCCN1CCc2[nH]c(=S)[nH]c(=O)c2C1 as the compound, how does the “fluorescence change” value read?
The value was inactive: -37.6%.

For CCn1c(=O)c2cc(C(=O)N(C)c3cc(C)ccc3C)sc2c2ccccc21, which Potency is on record?
The Potency was inconclusive [quencher, full curve].

Which Potency does the source give for Cc1ccc(C(=O)c2oc3ccccc3c2NC(=O)c2cc(=O)c3cc(C)ccc3o2)cc1 here?
The Potency was inconclusive [falling, partial curve, poor fit].

Which “fluorescence change” value does the source give for COc1ccc(C2=C(Nc3ccc(C)cc3)c3ccccc3C2=O)cc1 here?
Its value is inactive: 1.64%.

Which Potency does the source give for CC(C)(C)OC(=O)N1CCC(c2c(C(=O)NCCN3CCOCC3)cnn2-c2ccc(F)cc2)CC1 here?
Its Potency is inconclusive [falling, full curve, poor fit].

Which Potency does the source give for OCCC1CN(Cc2ccc3nonc3c2)CCN1Cc1ccsc1 (stereo not given) here?
The Potency was inconclusive [rising, single point].

For Fc1ccc(N=C2NN=C(c3cc(F)ccc3F)CS2)cc1, which Potency is on record?
Its Potency is inconclusive [quencher, full curve].

With O=C1/C(=C/c2ccccn2)SC(=S)N1Cc1ccccc1 as the compound, how does the “fluorescence change” value read?
Its value is inactive: 0.27%.

With CCCn1cc(S(=O)(=O)c2cc(C)ccc2C)c(=O)c2cc(F)c(N3CCN(CC)CC3)cc21 as the compound, how does the Potency read?
Its Potency is inconclusive [quencher, full curve].

For OC(C#CCN1CCCC1)(c1ccccc1)c1cccc(F)c1 (stereo not given), which “fluorescence change” value is on record?
The value was inactive: -7.07%.

For CCc1c(C)sc2nc(C(C)C)nc(SCC(=O)N3CCc4ccccc4C3)c12, which “fluorescence change” value is on record?
The value was inactive: -1.2%.

For COc1ccc(NC(=O)CSc2cn(CCNC(=O)c3c(F)cccc3F)c3ccccc23)cc1, which Potency is on record?
Its Potency is inconclusive [quencher, full curve].

Which “fluorescence change” value does the source give for CC[C@H](C)[C@H](NC(=O)[C@H](C)NC(=O)[C@H](Cc1cnc[nH]1)NC(=O)[C@@H]1CCCN1C(=O)CNC(=O)[C@H](CC(C)C)NC(=O)[C@H](CC(C)C)NC(=O)[C@H](Cc1ccc(O)cc1)NC(=O)CNC(=O)[C@H](C)NC(=O)[C@H](CO)NC(=O)[C@H](CC(N)=O)NC(=O)[C@H](CC(C)C)NC(=O)[C@@H](NC(=O)[C@H](Cc1c[nH]c2ccccc12)NC(=O)CN)[C@@H](C)O)C(=O)N[C@@H](CC(=O)O)C(=O)N[C@@H](CC(N)=O)C(=O)N[C@@H](Cc1cnc[nH]1)C(=O)N[C@@H](CCCNC(=N)N)C(=O)N[C@@H](CO)C(=O)N[C@@H](Cc1ccccc1)C(=O)N[C@@H](CO)C(=O)N[C@@H](CC(=O)O)C(=O)N[C@@H](CCCCN)C(=O)N[C@@H](Cc1cnc[nH]1)C(=O)NCC(=O)N[C@@H](CC(C)C)C(=O)N[C@H](C(N)=O)[C@@H](C)O here?
Its value is inactive: 0.975%.

For Cc1ccc(Oc2nc3c(c(=O)n(Cc4ccccc4F)c(=O)n3C)n2C)cc1, which “fluorescence change” value is on record?
Its value is inactive: -2.61%.

With Cc1cc2oc(C(=O)N(Cc3ccco3)Cc3ccccc3Cl)c(C)c2cc1C as the compound, how does the Potency read?
The Potency was inconclusive [falling, partial curve, poor fit].

With O=C1CCN(S(=O)(=O)c2ccccc2)CCN1CCOCc1ccccc1 as the compound, how does the “fluorescence change” value read?
The value was inactive: -1.22%.

With CC(C)Oc1ccc(CNC(=O)C2CCN(Cc3cc4ccccc4n3Cc3ccccc3)CC2)cc1 as the compound, how does the Potency read?
Its Potency is inconclusive [falling, full curve, poor fit].

With C=CCn1c(COc2cccc(C)c2)nnc1SCC(=O)NC(=O)NCc1ccco1 as the compound, how does the “fluorescence change” value read?
The value was inactive: -2.57%.

Which Potency does the source give for Nc1c(N=Nc2ccc(-c3ccc(N=Nc4cc(S(=O)(=O)O)c5ccccc5c4N)cc3)cc2)cc(S(=O)(=O)O)c2ccccc12 here?
Its Potency is inconclusive [falling, full curve, poor fit].

For CCOC(=O)CNC(=O)c1cc2c(=O)n3cccc(C)c3nc2n1C, which Potency is on record?
Its Potency is inconclusive [falling, full curve, poor fit].

For COc1ccc(OCC2c3cc(OC)c(OC)cc3CCN2C(=O)c2c(F)cccc2F)cc1 (stereo not given), which “fluorescence change” value is on record?
Its value is inactive: 0.0531%.

Which Potency does the source give for CC(C)c1ccc(NC(=O)c2cnc3sc(N4CCOCC4)nn3c2=O)cc1 here?
Its Potency is inconclusive [falling, full curve, poor fit].

With O=C(O)c1ccc2cccc(O)c2n1 as the compound, how does the “fluorescence change” value read?
Its value is inactive: 1.01%.

With COC1=C(N)C(=O)c2nc(-c3nc(C(=O)O)c(C)c(-c4ccc(OC)c(OC)c4O)c3N)ccc2C1=O as the compound, how does the “fluorescence change” value read?
The value was inactive: -5.48%.

For O=C(Nc1nnc(S(=O)(=O)N2CCCCC2)s1)c1ccc(F)cc1, which Potency is on record?
The Potency was active: 100 µM [quencher].

Which Potency does the source give for Cc1n[nH]c(C)c1CCc1nc2c3ccccc3nc(SCC(=O)Nc3ccc(F)cc3)n2n1 here?
The Potency was inconclusive [quencher, full curve].

With Cc1ccc(OCCn2cc(C(=O)c3ccco3)c3ccccc32)cc1C as the compound, how does the Potency read?
The Potency was inconclusive [falling, full curve, poor fit].

For CCn1c(NCc2ccc(OC)c(OC)c2)nc2ccccc21, which Potency is on record?
The Potency was inconclusive [falling, full curve, poor fit].

For O=c1c2oc3ccccc3c2n(Cc2ccccc2)c(=O)n1Cc1ccco1, which “fluorescence change” value is on record?
The value was inactive: -2.14%.

Which Potency does the source give for COc1cccc(CNC(=O)CCCN2C(=O)CSc3c2c(C)nn3-c2ccccc2)c1OC here?
Its Potency is inconclusive [falling, full curve, poor fit].

With CC1CCCN(C(=S)SCC(=O)c2cc(Br)cc(Br)c2O)C1 (stereo not given) as the compound, how does the “fluorescence change” value read?
Its value is inactive: 9.97% [at 53 µM].

Which “fluorescence change” value does the source give for COc1ccc(-n2c(C)c3c(OC)cccc(=O)c3c2C)cc1 here?
Its value is inactive: 3.75%.

For COc1cccc(-n2c(C)nc3cc(C(=O)O)ccc32)c1, which Potency is on record?
Its Potency is inconclusive [quencher, full curve].

Which Potency does the source give for COc1ccc(CCNC(=O)c2cnc3sc(N4CCOCC4)nn3c2=O)cc1 here?
The Potency was inconclusive [quencher, full curve].

Which “fluorescence change” value does the source give for CC(=O)Nc1ccc(/C=C/c2ccc3cccc([N+](=O)[O-])c3n2)cc1 here?
The value was inactive: -5.76%.

With CC[C@H](C)[C@H](NC(=O)[C@H](Cc1ccc(O)cc1)NC(=O)[C@@H](NC(=O)[C@H](CCCN=C(N)N)NC(=O)[C@@H](N)CC(=O)O)C(C)C)C(=O)N[C@@H](Cc1cnc[nH]1)C(=O)N1CCC[C@H]1C(=O)N[C@@H](Cc1ccccc1)C(=O)N[C@@H](Cc1cnc[nH]1)C(=O)N[C@@H](CC(C)C)C(=O)O as the compound, how does the Potency read?
The Potency was inconclusive [quencher, partial curve].

With CCOC(=O)c1cnc2ccc(OC)cc2c1Nc1ccc(OCc2ccccc2Cl)cc1 as the compound, how does the Potency read?
Its Potency is inconclusive [falling, partial curve, poor fit].

For O=C(CSc1nc2ccccc2s1)Nc1cc(S(=O)(=O)N2CCOCC2)ccc1Cl, which Potency is on record?
Its Potency is inconclusive [falling, full curve, poor fit].

Which Potency does the source give for COc1ccc(C)cc1NC(=O)c1nnn(Cc2cccc(Br)c2)c1N here?
The Potency was inconclusive [falling, full curve, poor fit].

For CCC1CN(C(=O)Nc2cccc(OC)c2)c2ccccc2O1 (stereo not given), which Potency is on record?
Its Potency is inconclusive.

Which Potency does the source give for COC(=O)c1ccccc1N=Nc1c(C)[nH][nH]c1=O here?
The Potency was inconclusive [rising, single point].

Which Potency does the source give for COc1ccc(N2CCN(C(=O)c3ccc4c(=O)n(CCc5ccc(OC)c(OC)c5)c(=O)[nH]c4c3)CC2)cc1 here?
Its Potency is inconclusive [quencher, partial curve].

For CCNC(=O)c1c(C)oc2ncn(C)c(=O)c12, which Potency is on record?
Its Potency is inconclusive [falling, full curve, poor fit].

Which Potency does the source give for COc1ccc(-c2cn3c(n2)sc2cc(C(=O)NCCCN4CCCCC4)ccc23)cc1 here?
The Potency was inconclusive [quencher, partial curve].

Which Potency does the source give for CC1=C(/C=C/C(C)=C/C=C/C(C)=C\C(=O)O)C(C)(C)CCC1 here?
Its Potency is active: 28.2 µM [fluorescent].

With COc1cc(/C=C(\C#N)c2nc3ccccc3[nH]2)ccc1OCc1ccc(F)cc1 as the compound, how does the Potency read?
Its Potency is inconclusive [rising, single point].

With CCC(C)(C)n1nnnc1C(c1ccccc1)N1CCN(C2CCCC2)CC1 (stereo not given) as the compound, how does the “fluorescence change” value read?
The value was inactive: -0.624%.

With COCCNC(=O)C(OC(=O)C1=Cc2ccccc2OC1)C(C)C (stereo not given) as the compound, how does the Potency read?
Its Potency is inconclusive [rising, single point].

For Nc1ccc(O)c(-c2nc3ccccc3s2)c1, which Potency is on record?
The Potency was inconclusive [quencher, partial curve].
